Measurements reported in PubChem BioAssay AID662 (National Center for Advancing Translational Sciences (NCATS), 2007).
Hit rate of the full screen: of about 71,000 compounds, about 1,800 (2.5%) were called active. This list was built around the results that the source calls inconclusive (neither active nor inactive); the mix of calls is not that of the screen. Calls come from the whole dose curve; as a rule, active = well fitted activation curve with a large enough effect in the signal ratio, with a control signal flat (not every such curve was filed as active); inconclusive = small, poorly fitted or top-dose-only effect, or effect the other way, or a change in a side signal; inactive = flat fitted curve, though single readings scatter; the % refers to the signal ratio. Where the call is inconclusive, the potency comes from a doubtful curve fit.

assay: Cell signaling CRE-BLA (Fsk stim); conditions: CHO CRE-bla reporter (cAMP response element driving beta-lactamase), forskolin EC10, beta-lactamase ratio; activity change, negative = inhibition: at 38.2 µM (top of the series) unless noted; for activity change, negative = inhibition: % of control where 0% means no effect
Method in brief: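 Using CellSensor CRE-bla CHO cells in Opti-MEM with 0.5% dialyzed FBS, compounds were titrated with EC10 NKH 477 for 3 h at 37 °C. CCF4 ratio (460/530 nm) gave %Activity; AC50 derived.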
Potency is the fitted concentration of half-maximal effect; tags give direction and shape of the fitted curve.

SMILES	activity change, negative = inhibition	Potency
COC(=O)c1sc(NC(=O)c2ccco2)nc1C	inactive: 2.08%	
CCNc1nc(N2CCCCC2)nc(-n2nnc(C(=O)OCC)c2C)n1		inconclusive: 12.6 µM [rising, partial curve]
COc1cc2oc(-c3ccccc3)cc(=O)c2cc1OC		active: 6.31 µM
CC(=O)C(Sc1nc(-c2ccco2)nc2c1c(=O)n(C)c(=O)n2C)C(=O)N(C)C (configuration not stated)	inconclusive: 14.1%	
COc1cccc(N2CCN(CC(=O)Nc3nnc(-c4ccccc4)s3)CC2)c1	inconclusive: -12.7%	
COc1ccc(-c2nc(SCC(=O)NCc3ccco3)c(-c3ccccc3)[nH]2)cc1OC		inconclusive: 10 µM [rising, single point]
CC(C)(C)Nc1nc(SCc2ccccc2)nc(N2CCOCC2)n1		active: 2.51 µM
Cc1ccc(-c2nc(NC(=O)CSc3nnnn3-c3ccccc3)ns2)cc1		inconclusive: 1 µM [rising, full curve, poor fit]
COc1ccc(C(=O)O)cc1F	inconclusive: 21.3%	
CCOc1ccc(C2C(C#N)=C(N)Oc3cc(C)n(CCN(C)C)c(=O)c32)cc1OCC (configuration not stated)	inactive: -14.6%	
O=S(=O)(c1ccc(OCC(O)CN2CCN(c3ccccc3Cl)CC2)cc1)N1CCOCC1 (configuration not stated)		inconclusive: 5.01 µM [falling, single point]
COCCn1c(=NC(=O)CSCC(=O)Nc2cc(C)on2)sc2cc(C(=O)OC)ccc21	inconclusive: 25.2%	
CC12COC3(C(=O)N4CCN(c5ccccn5)CC4)CC1CCC32C (configuration not stated)	inactive: -8.54%	
CSc1nnnn1CCn1nnnc1SC	inconclusive: 2.37%	
COc1ccccc1CN1CCCC2(CCN(S(=O)(=O)c3ccccc3)CC2)C1	inactive: -1.33%	
CCOC(=O)c1c(NC(=O)CSc2nnc(CN3CCOCC3)n2C)sc2c1CCCC2	inconclusive: 2.94%	
COCCn1c(C(=O)N2CCCC2)cc2c1C[C@H]1CN(C(=O)c3ccccc3)[C@@](Cc3ccc(OC)cc3)(C(=O)OC)[C@@H]21	inactive: -12.1%	
COc1ccc(CN(CCCN2CCOCC2)C(=O)Nc2ccccc2)cc1OC	inconclusive: -11.6%	
CCOc1ccccc1C(=O)NC(C(=O)Nc1ccccc1N1CCOCC1)C(C)C (configuration not stated)		inconclusive: 12.6 µM [rising, single point]
COc1cc(NC(=O)c2onc(C)c2Cl)c(OC)cc1Cl	inconclusive: 17.1%	
c1ccc2nc3c(nc2c1)CCc1nonc1-3	inconclusive: 7.71%	

SMILES	activity change, negative = inhibition	Potency
CCOC(=O)CNc1c(-c2ccc(O)cc2)nc2ccccn12	inconclusive: -29.9%	
COC(=O)c1ccccc1NC(=O)CSc1nc(N)cc(N)n1		inconclusive: 10 µM [rising, partial curve]
O=C(NCc1ccccc1F)C1CCCN1C(=O)NCc1ccccc1 (configuration not stated)	inactive: -1.33%	
O=C(Oc1ccccc1)N1CCC2(CCCN(c3ccccc3)C2)CC1	inconclusive: 12.3%	
O=c1[nH]cnc2c1sc(=S)n2-c1ccccc1	inconclusive: 17.7% [at 7.6 µM]	
CCOC(=O)C1CCCN(C(=O)c2ccc(OCC)cc2)C1 (configuration not stated)	inconclusive: -29.9% [at 7.6 µM]	
CN(Cc1ccco1)c1ccnc(-c2cccc(C#N)c2)n1	inconclusive: 29.7%	
CC1(C)Cc2nc(-c3ccccc3)n3cnnc3c2CO1	inactive: 3.56%	
C=CCOC(=O)C1=C(C)Nc2nnnn2C1c1cccc(OC)c1OC (configuration not stated)	inconclusive: 8.45%	
N#CCC(=O)Nc1ccccc1C(=O)O		inconclusive: 0.126 µM [falling, single point]
CC(C)Sc1nc2c(c(=O)n(C)c(=O)n2C)n1C	inconclusive: 15.3%	
Cc1ccc(C(=O)c2cc(C)sc2NC(=O)CN2CCN(C(=O)c3ccco3)CC2)cc1	inactive: 8.32%	
N#Cc1c(SCC(N)=O)nc(-c2ccccc2)c2c1CCCC2	inconclusive: 23.7%	
Cc1ccc(C2Nc3ccccc3C(=O)N2Cc2ccco2)cc1 (configuration not stated)	inactive: -9.67%	
O=C(CN1C(=O)COc2ccccc21)NCCCN1CCN(Cc2ccccc2)CC1	inconclusive: -25.2%	
CCN(CCCn1c(SCC#N)nc2ccccc2c1=O)c1ccccc1		active: 2.51 µM
c1ccc(Cc2nnc3sc(-c4ccc5c(c4)OCO5)nn23)cc1	inactive: 5.19%	
Cc1cc(N)n2nc(-c3ccccc3)cc2n1	inactive: -2.7%	
O=C(CSc1nc(-c2ccccc2)cc(=O)[nH]1)Nc1ccccn1		inconclusive: 20 µM [rising, single point]
COc1cc(C2C(C(=O)c3cccs3)=C(O)C(=O)N2Cc2ccco2)cc(OC)c1OC (configuration not stated)		inconclusive: 0.0251 µM [rising, full curve, poor fit]
O=C(c1ccc(CS(=O)(=O)c2c(Cl)cccc2Cl)o1)N1CCN(c2ccccn2)CC1	inconclusive: 17.2%	

SMILES	activity change, negative = inhibition	Potency
O=c1[nH]c(CSc2nnc(-c3ccco3)n2-c2ccccc2)nc2sc3c(c12)CCC3		active: 10 µM
CCn1c(=O)n(CC)c2cc(S(=O)(=O)Nc3ccccc3C)c(C)cc21		inconclusive: 12.6 µM [rising, partial curve]
Cn1c2ccccc2c2c(C(=O)NCC3CCCO3)cn(C3CCCC3)c(=O)c21 (configuration not stated)		inconclusive: 10 µM [rising, single point]
CCOc1ccc(OCC)c(NC(=O)CN2CCN(c3ccc(C)cc3C)CC2)c1	inactive: -5.15%	
COC(=O)c1oc2ccc(Br)cc2c1NC(=O)CCCN1C(=O)c2ccccc2C1=O	inactive: 2.78%	
Cc1nc2ccccn2c1C(=O)NCc1cccnc1	inactive: 20.4%	
O=C(O)/C=C\c1c2ccc(=O)c(O)c-2oc2c(O)c(O)ccc12	inactive: 1.26% [at 7.6 µM]	
CCOC(=O)N1CCC(NC(=O)Cn2c3ccccc3c3cn[nH]c(=O)c32)CC1	inconclusive: 2%	
COc1ccc(C2/C(=C(/O)c3ccccc3)C(=O)C(=O)N2CC(C)O)c(OC)c1 (configuration not stated)	inconclusive: -7%	
Cc1cc(Nc2ccc(Br)c(C)c2)n2nc(C)nc2n1		inconclusive: 10 µM [rising, partial curve]
CCc1ccc(NC(=O)N(CCCOC(C)C)C2CCN(C(C)=O)CC2)cc1	inconclusive: 13.1%	
CNc1nc2c(c(=O)[nH]c(=O)n2C)n1CCOC	inconclusive: -23.3%	
Cc1cnc(CNc2ncnc3ccc(-c4ccccc4C)cc23)cn1	inconclusive: 15.6%	
CN1CCN(c2ncc3nc(-c4cn(C)c5ccccc45)c(=O)n(C[C@H]4CCCO4)c3n2)CC1		inconclusive: 12.6 µM [rising, partial curve]
CCn1c(=O)cc(OCC(=O)Nc2ccc3c(c2)OCCO3)c2ccccc21		inconclusive: 1.26 µM [rising, partial curve]
O=c1c(O)c(-c2ccc3c(c2)OCO3)oc2ccccc12	inactive: 1.41%	
CCCCn1c(=N)n(CC(=O)C(C)(C)C)c2ccccc21	inconclusive: -0.583%	
C=CCn1c(SCn2nnc3ccccc3c2=O)nnc1-c1ccc(Br)cc1		inconclusive: 5.01 µM [falling, single point]
c1ccc(-c2noc(-c3ccncc3)n2)nc1	inconclusive: -7.79% [at 7.6 µM]	
Cc1ccc(NC(=O)Cc2nc(CSc3nnc(-c4ccc5c(c4)OCO5)o3)cs2)cc1	inactive: 11.5%	
CCCn1nc(C(=O)Nc2cc(C(=O)OC)ccc2C)c2ccccc2c1=O		inconclusive: 3.98 µM [rising, single point]

SMILES	activity change, negative = inhibition	Potency
Cc1noc(C)c1-c1ccc2ncnc(NCCN3CCOCC3)c2c1	inconclusive: 28.2%	
CC(C)(C)SCCNC(=O)CN(c1ccc(F)cc1)S(C)(=O)=O	inconclusive: 10.4% [at 7.6 µM]	
CC1CN=C(c2cccn2Cc2ccc(F)cc2Cl)O1 (configuration not stated)	inactive: -0.608%	
Cn1c(=O)c2c(nc(NC(Cc3ccccc3)C(=O)O)n2Cc2ccccc2)n(C)c1=O (configuration not stated)	inconclusive: 18.6%	
COc1ccccc1-c1ccc2ncnc(N3CCNCC3)c2c1	inconclusive: 13.7%	
O=C(CSc1nc(Nc2ccccc2)nc(N2CCOCC2)n1)N1CCc2ccccc21		active: 3.98 µM
CCN(CC)S(=O)(=O)c1cccc(C(=O)Nc2ccccc2C(=O)N2CCOCC2)c1	inconclusive: 15.5%	
COc1cccc(Cn2c(=O)c(C)nc3cnc(Oc4ccccc4)nc32)c1		active: 10 µM
O=C(Cc1cccs1)NCc1ccc2c(c1)OCO2	inconclusive: -20.8%	
Cc1ccc(Cn2c(CN(C)Cc3ccccc3)nc3c2c(=O)n(C)c(=O)n3C)cc1		inconclusive: 10 µM [rising, partial curve]
CCN1CCCC1CN(Cc1cc2cc(C)cc(C)c2[nH]c1=O)C(=O)Nc1ccccc1OC (configuration not stated)		inconclusive: 12.6 µM [rising, single point]
CCN(Cc1nc2ccccc2c(=O)[nH]1)Cc1nc2cc(OC)c(OC)cc2c(=O)[nH]1		active: 3.98 µM
CSc1ccccc1N=CC1=C(O)CC(C)(C)CC1=O	inconclusive: -17.4%	
NCCC[C@@H](CC(=O)N[C@@H]1CCNC[C@H]1C(=O)N[C@H](CC(=O)N[C@@H](CCC(=O)O)CC(=O)O)Cc1c[nH]c2ccccc12)NC(=O)C[C@H](Cc1ccccc1)NC(=O)[C@@H]1CCCC[C@H]1N	inactive: -15.1%	
COc1ccc(CCNC(=O)Cn2cnc3c(cnn3-c3ccccc3Cl)c2=O)cc1OC	inactive: -1.96%	
CCCCNC(=O)c1nn(-c2ccccc2OC)c(=O)c2ccccc12	inactive: -4.53%	
CC(C)[C@@H]1C(=O)N(S(C)(=O)=O)[C@H]2CCN(C(=O)/C=C\CN3CCCCC3)[C@@H]12	inconclusive: -27.6%	
CN(C)C(=O)c1ccc(-c2nc(Nc3ccccc3)c3ccccc3n2)cc1		active: 3.16 µM
CCN(CC)S(=O)(=O)c1ccc2nnn(OCC(=O)Nc3cccc(C#N)c3)c2c1	inconclusive: 25.8%	
